Reference: paper PMC4336329 (PLoS ONE, 2015)
The campaign covered roughly 310,000 compounds. About 2,200 (0.71%) showed an effect of 50% or more. The effect is printed as a negative number. The list shows a part of the results.

molecular target: human ether-à-go-go-related gene (hERG) potassium channel (human, UniProt Q12809); experiment: primary screen, population patch clamp on CHO cells stably expressing hERG
Sequence (Q12809 whole entry, looked up): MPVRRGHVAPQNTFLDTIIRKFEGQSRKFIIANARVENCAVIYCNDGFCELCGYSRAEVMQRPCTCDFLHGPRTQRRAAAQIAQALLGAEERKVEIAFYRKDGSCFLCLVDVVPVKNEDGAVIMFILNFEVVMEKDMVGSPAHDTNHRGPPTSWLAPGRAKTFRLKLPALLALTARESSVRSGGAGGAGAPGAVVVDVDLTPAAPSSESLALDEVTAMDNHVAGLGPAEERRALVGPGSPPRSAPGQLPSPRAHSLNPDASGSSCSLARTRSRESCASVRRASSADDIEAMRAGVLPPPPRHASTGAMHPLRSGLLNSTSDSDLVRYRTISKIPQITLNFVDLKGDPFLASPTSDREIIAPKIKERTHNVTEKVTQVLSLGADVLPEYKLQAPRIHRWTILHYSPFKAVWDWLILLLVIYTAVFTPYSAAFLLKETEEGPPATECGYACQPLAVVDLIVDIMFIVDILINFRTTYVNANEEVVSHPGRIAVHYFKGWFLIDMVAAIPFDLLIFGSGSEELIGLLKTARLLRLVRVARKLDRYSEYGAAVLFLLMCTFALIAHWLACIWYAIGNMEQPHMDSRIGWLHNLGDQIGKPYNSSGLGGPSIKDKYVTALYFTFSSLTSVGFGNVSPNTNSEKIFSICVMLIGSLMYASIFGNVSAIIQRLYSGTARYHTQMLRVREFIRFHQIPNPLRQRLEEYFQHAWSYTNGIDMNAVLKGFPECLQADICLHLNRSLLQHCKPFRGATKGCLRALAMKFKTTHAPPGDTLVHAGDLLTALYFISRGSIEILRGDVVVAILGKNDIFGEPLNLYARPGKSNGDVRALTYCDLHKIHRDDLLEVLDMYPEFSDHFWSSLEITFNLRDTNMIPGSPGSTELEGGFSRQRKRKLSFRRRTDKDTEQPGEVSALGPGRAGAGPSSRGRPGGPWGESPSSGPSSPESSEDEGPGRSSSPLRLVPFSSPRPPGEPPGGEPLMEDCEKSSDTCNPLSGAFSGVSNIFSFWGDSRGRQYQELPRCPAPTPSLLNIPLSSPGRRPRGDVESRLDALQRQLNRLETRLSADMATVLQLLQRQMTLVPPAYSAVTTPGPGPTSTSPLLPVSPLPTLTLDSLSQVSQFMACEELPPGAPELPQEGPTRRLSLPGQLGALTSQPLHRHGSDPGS

Structure (SMILES)	hERG current change (%, negative = inhibition) at 1uM [%]
CCC(=O)N(CCO)Cc1cc2ccc(C)c(C)c2[nH]c1=O	-11
CC1(C)CC(=O)C(Sc2ccccc2)=C(O)C1	15.2
O=C(NCc1ccco1)/C(=C/c1ccco1)NC(=O)c1ccccc1	12.3
CCOc1ccc(NS(=O)(=O)c2ccc3c(c2)CCN3C(=O)C2CCC2)cc1	12.4
C[C@H](NC(=O)CCCOc1ccc(Cl)cc1Cl)c1nnc2ccccn12	-5.04
O=C(CCc1ccc(S(=O)(=O)N2CCOCC2)cc1)Nc1nccs1	5.43
O=c1cc2oc3cc(O)c(O)cc3c(-c3ccccc3[N+](=O)[O-])c-2cc1O	8.61
CC12CN3CC(C)(CN(C1)C3c1ccc(Cl)cc1)C2 (centres unmarked)	13.5
Cn1nc(C(=O)N2CCOCC2)c([N+](=O)[O-])c1C(=O)N1CCOCC1	-36.6
Nc1nc(Nc2ccccc2)sc1C(=O)c1ccccc1	4.24
Cc1cc(C)nc(OC(C(=O)O)C(OCC(C)C)(c2ccccc2)c2ccccc2)n1 (centres unmarked)	15.9
Cc1ccc(Nc2nnc(SCC(=O)Nc3ncc(C(F)(F)F)cc3Cl)s2)cc1	9.66
COc1ccccc1NC(=O)Cn1c(C)nc2c(sc(=S)n2Cc2ccco2)c1=O	-8.44
CCOC(=O)N1CCN(C(=O)CC(=O)Nc2ccc3nc4n(c(=O)c3c2)CCCCC4)CC1	10
CC(=O)Nc1ccc(OCCOc2ccc(/C=C3\C(=N)N4N=C(C)SC4=NC3=O)cc2)cc1	15.5
NC(=O)C1(c2ccccc2)CCCN1C(=O)c1ccc(Br)cc1 (centres unmarked)	5.44
O=C(O)CCc1nn2c3ccccc3nc2n(CCN2CCCCC2)c1=O	12.3
Cc1ccc(N(CC(=O)NCc2ccco2)C(=O)CCC(=O)Nc2nccs2)c(C)c1	4
CC(C)CNC(=O)N[C@@H](CC(C)C)C(=O)O	9.55
CCOc1cc(C(=O)N2CCC(CC3CC(c4cccc(Br)c4)=NO3)(C(=O)NCC3CCCCC3)CC2)cc(OCC)c1OCC (centres unmarked)	0.761
CCCn1nnnc1NCc1cccc(OC)c1	14.5
COc1ccc(NC(=O)CC(c2ccccc2)c2ccco2)cc1 (centres unmarked)	7.48

Structure (SMILES)	hERG current change (%, negative = inhibition) at 1uM [%]
Cc1ccc(S(=O)(=O)N2CC3(C)CN(S(=O)(=O)c4ccc(C)cc4)CC(C)(C2)C3)cc1	7.77
COc1cccc(NC(=O)C(Cc2ccccc2)n2cccc2)c1 (centres unmarked)	15
O=C(CNS(=O)(=O)c1ccccc1)OCC(=O)c1cccc([N+](=O)[O-])c1	-1.03
O=C(CN1CCC(n2nnc3cc(F)ccc32)CC1)Nc1ccccc1N1CCOCC1	-42.2
COc1ccc(N(C)S(=O)(=O)c2cccc(C(=O)NCc3ccc4c(c3)OCO4)c2)cc1	11.5
CSc1ccc(CN(C)C(=O)CN2C(=O)NC3(CCCC3)C2=O)cc1	9.41
O=C(Nc1ccc(Nc2ccccc2)cc1)c1ccc(Br)o1	10.2
CSCCC(NC(=O)c1ccc(C)o1)C(=O)O (centres unmarked)	13
O=C(N/N=C1\CCCc2c1[nH]c1ccc(Cl)cc21)c1ccncc1	3.55
CCOC(=O)N1CCN(c2cc(=O)n(-c3ccccc3C)c(=O)[nH]2)CC1	10.2
Cc1ccc(C2=CSC3=NS(=O)(=O)CCN23)cc1C	3.61
COc1ccc(C(=O)NCC(=O)O)cc1	11.9
C=C[C@@H]1C2=CCOC(=O)C2=CO[C@H]1O[C@@H]1O[C@H](CO)[C@@H](O)[C@H](O)[C@H]1O	12.6
CC1(C)Cc2c(C#N)c(N3CCN(C(=O)c4ccccc4)CC3)nc(-c3ccco3)c2CS1	11.7
COc1ccc(CCN2C(=O)CC(NNC(=O)c3ccccc3Br)C2=O)cc1OC (centres unmarked)	8.86
O=C(Nc1ccccc1-c1ccccc1)NC1CC2CCCC(C1)N2Cc1ccc(F)cc1 (centres unmarked)	-12.2
Cc1ccc(OCc2ccc([N+](=O)[O-])cc2)c([N+](=O)[O-])n1	-2.94
CC1=CC(C)(C)N2C(=O)C(=Nc3ccc(O)cc3)c3cccc1c32	4.91
O=c1[nH]c(CSc2nnc(-c3ccccc3)n2C2CCCCC2)nc2ccccc12	0.571
CCCC(=O)N1CCN(c2ccc(NC(=O)c3ccco3)cc2)CC1	9.66
CC(=O)Nc1ccc(C(=O)Nc2nc(-c3ccccn3)cs2)cc1	18.7
CCn1c(=O)c2sccc2n(Cc2cccc(C)c2)c1=O	3.66

Structure (SMILES)	hERG current change (%, negative = inhibition) at 1uM [%]
CN(C)C1=NC[C@H](Cc2ccccc2)N1CCc1ccc(F)cc1	-20.3
Cc1ccc(NC(=O)CSc2nnc(/N=C/N(C)C)s2)cc1	6.96
CCCCOC(=O)c1ccc(NC(=O)/C=C/c2cccs2)cc1	1.76
CC(Sc1nc(N)cc(N)n1)C(=O)NCCC1=CCCCC1 (centres unmarked)	19
COc1ccc(NC(=O)Nc2cccnc2)c(OC)c1	18.4
COc1ccc(CC(C(=O)Nc2cccc(F)c2)c2nn[nH]n2)c(OC)c1 (centres unmarked)	3.05
CC(C)CN(C(=O)COC(=O)Cc1ccc(Cl)cc1)c1c(N)n(Cc2ccccc2)c(=O)[nH]c1=O	2.58
O=C(N/C(=C\c1ccc([N+](=O)[O-])cc1)C(=O)N1CCOCC1)c1cccc(Br)c1	-79
Cc1c(NC(=O)/C(C#N)=C/c2cccs2)c(=O)n(-c2ccccc2)n1C	6.92
Cc1nn(Cc2ccc(F)cc2Cl)c(C)c1[N+](=O)[O-]	11.4
CCOC(=O)c1c(-c2ccc(OC)cc2)oc2ccc(O)cc12	8.36
Cc1nc2cc(S(=O)(=O)N3CCC(C(=O)O)CC3)ccc2n1C1CCCC1	11.6
O=c1c2ccccc2nnn1CSc1nnnn1-c1ccc(O)cc1	-13.2
CC1SCC(=O)N(CC(=O)NC2CCCCC2)C1=O (centres unmarked)	16.6
OCC(O)CNC(=S)NC1CCCCC1 (centres unmarked)	11.4
C=CCn1c(O)c(/C=C2\C=Nc3ccccc32)c(=O)[nH]c1=O	10.1
CCOc1ccc(C2CC(=O)NC(SCC(=O)OC)=C2C#N)cc1 (centres unmarked)	8.09
CC1CCN(S(=O)(=O)c2ccc3c(ccn3CCC(=O)NC(C)C)c2)CC1	11.9
O=C(O)c1cc(S(=O)(=O)N2CCN(C(=O)c3ccco3)CC2)c(Cl)cc1Cl	22.5
COCc1cc(=O)n2[nH]c(-c3ccsc3-n3c(C)ccc3C)cc2n1	5.79
Cc1ccnc(NS(=O)(=O)c2ccc(NC(=O)c3ccc(Cl)cc3[N+](=O)[O-])cc2)n1	11.1
O=c1[nH]c2cc3c(cc2cc1C(c1nnnn1Cc1ccccc1)N1CCCc2ccccc21)OCO3 (centres unmarked)	19.7

Structure (SMILES)	hERG current change (%, negative = inhibition) at 1uM [%]
CCOC(=O)c1c(N)nn(C(=O)c2ccccc2)c1-c1ccccc1	13.3
O=C(NCc1cccnc1)c1ccc(Cl)cc1[N+](=O)[O-]	7.05
CCCn1c(=O)c2c(nc3n2CCCN3CCc2ccccc2)n(C)c1=O	-6.26
CC(Oc1cc2oc(=O)c3c(c2cc1Cl)CCC3)C(=O)NCc1ccncc1 (centres unmarked)	9.16
CCn1cnc2cc([N+](=O)[O-])ccc21	7.74
O=C(N/N=C/c1coc2ccccc2c1=O)c1cn(-c2ccccc2)nc1-c1ccc(F)cc1	11.5
Cc1ccc(C(=O)NCC(=O)OCc2cccc(Br)c2)cc1	13.7
COc1ccc(-n2cnc3cc(NCc4ccco4)ccc32)cc1	-5.15
C=C(C)C(=O)Nc1cccc(C2=NOC3(C2)C[C@H](C(N)=O)N(C(=O)c2ccccc2)C3)c1 (some centres unmarked)	12.5
CSc1c(CC(=O)Nc2ccccc2)n(C)c2ccccc12	7.41
Cn1nc(C(=O)Nc2cccc(C(F)(F)F)c2)ccc1=O	-0.902
COc1ccc(/C=N/NC(=O)c2ccco2)cc1OCc1ccccc1	11.5
COc1c(Cl)cc(C(=O)O)cc1Cl	3.48
CC(C)C[C@H](NC(=O)N1CC(=O)Nc2ccccc21)C(=O)N[C@H](C(=O)O)c1ccccc1	9.24
COc1cccc(CNS(=O)(=O)c2ccc3c(c2)C(C)(C)C(=O)N3C)c1	-2.24
CC(=O)Nc1ccc(S(=O)(=O)N2CCN(CCN3CCOCC3)CC2)cc1Cl	10.4
O=C(COC(=O)C1(c2ccccc2F)CCCC1)NC1CCS(=O)(=O)C1 (centres unmarked)	15.3
Cc1cccc(N2C(=O)Cc3ccccc3C2=O)c1	2
c1cnc2ccc(-c3ccc4ncccc4c3)cc2c1	11.9
O=C(/C=C/c1ccccc1)Nc1ccc(C(=O)N2CCCCC2)cc1	-0.47
